Publication PMC6018636, “Mutually exclusive acetylation and ubiquitylation of the splicing factor SRSF5 control tumor growth” (Nature Communications, 2018)
These are yes or no findings as the source states them, for the method shown. In cells and extracts the contact can be indirect. Some results given as binding are weak or reduced against the parent protein; the word gives no strength. For part of these data: Tags and fused reporters may be left off the sequences shown.

The chains behind the UniProt entries cited, without tags or fusion partners. Where a name states a change or a piece, a line headed by the entry shows the natural chain unless it says otherwise. A line that says so, or that is headed by a name, gives the form on record, which may keep a tag or linker.
UniProt Q13547: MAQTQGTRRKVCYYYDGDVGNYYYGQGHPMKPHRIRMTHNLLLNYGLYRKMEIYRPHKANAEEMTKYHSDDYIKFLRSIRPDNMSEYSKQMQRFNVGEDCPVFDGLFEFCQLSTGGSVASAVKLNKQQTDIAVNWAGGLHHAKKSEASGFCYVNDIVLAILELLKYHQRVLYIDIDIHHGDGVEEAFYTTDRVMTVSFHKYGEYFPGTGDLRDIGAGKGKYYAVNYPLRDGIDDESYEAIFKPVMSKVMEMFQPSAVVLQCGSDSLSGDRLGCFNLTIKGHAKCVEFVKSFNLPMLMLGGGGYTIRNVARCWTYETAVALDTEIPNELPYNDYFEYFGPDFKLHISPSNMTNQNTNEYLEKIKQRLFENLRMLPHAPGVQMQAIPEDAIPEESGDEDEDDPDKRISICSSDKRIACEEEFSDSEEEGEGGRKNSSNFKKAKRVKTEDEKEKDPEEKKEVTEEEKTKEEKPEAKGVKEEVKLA
UniProt Q92993: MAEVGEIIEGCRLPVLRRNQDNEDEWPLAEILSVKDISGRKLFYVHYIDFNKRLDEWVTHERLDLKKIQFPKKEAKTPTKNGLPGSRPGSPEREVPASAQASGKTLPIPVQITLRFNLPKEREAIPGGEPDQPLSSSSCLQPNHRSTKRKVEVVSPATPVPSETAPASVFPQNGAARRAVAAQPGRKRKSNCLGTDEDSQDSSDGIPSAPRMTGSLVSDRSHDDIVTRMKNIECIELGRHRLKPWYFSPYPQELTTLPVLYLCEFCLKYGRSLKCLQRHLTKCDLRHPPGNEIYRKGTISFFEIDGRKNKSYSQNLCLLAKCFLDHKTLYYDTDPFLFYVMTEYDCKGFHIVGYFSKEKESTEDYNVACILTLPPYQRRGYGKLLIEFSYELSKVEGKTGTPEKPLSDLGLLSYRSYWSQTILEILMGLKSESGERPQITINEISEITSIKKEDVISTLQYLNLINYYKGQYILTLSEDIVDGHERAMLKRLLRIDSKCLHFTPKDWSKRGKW
UniProt Q9HCE7: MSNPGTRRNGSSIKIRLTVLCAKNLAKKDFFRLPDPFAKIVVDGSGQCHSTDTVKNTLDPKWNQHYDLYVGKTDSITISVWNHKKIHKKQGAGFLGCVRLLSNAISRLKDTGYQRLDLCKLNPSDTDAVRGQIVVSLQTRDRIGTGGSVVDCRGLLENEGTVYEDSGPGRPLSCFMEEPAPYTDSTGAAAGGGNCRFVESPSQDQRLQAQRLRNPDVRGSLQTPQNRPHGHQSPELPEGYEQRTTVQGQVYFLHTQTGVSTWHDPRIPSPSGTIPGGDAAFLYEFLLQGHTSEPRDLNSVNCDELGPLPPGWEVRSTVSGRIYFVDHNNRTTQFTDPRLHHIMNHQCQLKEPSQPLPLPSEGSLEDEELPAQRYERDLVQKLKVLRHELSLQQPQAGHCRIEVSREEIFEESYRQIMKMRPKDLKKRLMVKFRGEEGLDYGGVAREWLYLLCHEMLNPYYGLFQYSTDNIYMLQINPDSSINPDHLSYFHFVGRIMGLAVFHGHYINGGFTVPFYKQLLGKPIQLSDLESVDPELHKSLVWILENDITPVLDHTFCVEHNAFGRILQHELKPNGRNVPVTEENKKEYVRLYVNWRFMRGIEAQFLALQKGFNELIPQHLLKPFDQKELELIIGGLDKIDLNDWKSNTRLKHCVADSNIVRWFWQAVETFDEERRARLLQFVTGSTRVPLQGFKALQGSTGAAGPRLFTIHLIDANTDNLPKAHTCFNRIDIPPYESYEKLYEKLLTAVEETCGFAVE
Smurf1 (transfected, HEK293T, Fig. 7f) (Q9HCE7-2, form named): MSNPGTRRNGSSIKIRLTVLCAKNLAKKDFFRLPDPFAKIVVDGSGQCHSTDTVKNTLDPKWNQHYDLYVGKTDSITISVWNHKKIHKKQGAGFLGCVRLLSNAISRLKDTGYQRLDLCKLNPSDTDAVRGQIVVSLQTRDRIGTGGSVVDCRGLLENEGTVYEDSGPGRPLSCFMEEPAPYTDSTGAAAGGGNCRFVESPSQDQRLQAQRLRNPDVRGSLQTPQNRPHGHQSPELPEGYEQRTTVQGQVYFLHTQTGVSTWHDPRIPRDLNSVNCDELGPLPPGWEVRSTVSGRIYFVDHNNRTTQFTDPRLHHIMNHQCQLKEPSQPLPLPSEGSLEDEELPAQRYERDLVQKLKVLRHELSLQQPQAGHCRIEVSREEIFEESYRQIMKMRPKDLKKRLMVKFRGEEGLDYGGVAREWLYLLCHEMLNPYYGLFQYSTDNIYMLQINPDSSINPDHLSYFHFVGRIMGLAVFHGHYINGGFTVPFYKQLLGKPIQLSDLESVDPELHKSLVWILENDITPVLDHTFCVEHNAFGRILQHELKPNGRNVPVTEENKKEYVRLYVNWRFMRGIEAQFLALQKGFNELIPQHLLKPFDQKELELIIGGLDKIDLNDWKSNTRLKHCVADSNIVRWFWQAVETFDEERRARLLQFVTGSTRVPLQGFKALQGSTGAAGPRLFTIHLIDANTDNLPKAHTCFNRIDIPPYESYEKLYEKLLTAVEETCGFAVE
UniProt Q13620: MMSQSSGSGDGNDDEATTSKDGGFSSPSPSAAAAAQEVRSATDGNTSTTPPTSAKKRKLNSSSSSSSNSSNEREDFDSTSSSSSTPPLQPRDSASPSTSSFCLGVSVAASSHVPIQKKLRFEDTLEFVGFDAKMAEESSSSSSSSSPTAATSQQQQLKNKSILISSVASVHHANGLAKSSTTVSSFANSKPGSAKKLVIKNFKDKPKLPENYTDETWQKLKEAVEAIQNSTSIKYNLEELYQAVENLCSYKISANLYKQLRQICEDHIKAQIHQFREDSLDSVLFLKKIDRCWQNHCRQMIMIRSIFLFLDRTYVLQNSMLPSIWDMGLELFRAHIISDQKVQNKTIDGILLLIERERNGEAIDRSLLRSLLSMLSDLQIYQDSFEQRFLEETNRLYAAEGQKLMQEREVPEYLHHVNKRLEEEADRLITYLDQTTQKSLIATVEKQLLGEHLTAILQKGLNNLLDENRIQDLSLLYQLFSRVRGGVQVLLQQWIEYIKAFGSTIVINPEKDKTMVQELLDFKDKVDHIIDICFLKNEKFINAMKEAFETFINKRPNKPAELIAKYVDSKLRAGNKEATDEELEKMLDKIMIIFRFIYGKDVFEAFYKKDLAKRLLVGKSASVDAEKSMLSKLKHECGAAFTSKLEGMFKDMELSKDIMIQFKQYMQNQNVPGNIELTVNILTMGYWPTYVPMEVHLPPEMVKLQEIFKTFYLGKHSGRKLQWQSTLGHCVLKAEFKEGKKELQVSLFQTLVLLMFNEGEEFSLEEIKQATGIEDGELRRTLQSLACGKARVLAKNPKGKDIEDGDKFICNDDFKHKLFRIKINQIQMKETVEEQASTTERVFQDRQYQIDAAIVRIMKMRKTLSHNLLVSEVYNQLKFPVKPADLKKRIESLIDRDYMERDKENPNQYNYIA
UniProt P98175: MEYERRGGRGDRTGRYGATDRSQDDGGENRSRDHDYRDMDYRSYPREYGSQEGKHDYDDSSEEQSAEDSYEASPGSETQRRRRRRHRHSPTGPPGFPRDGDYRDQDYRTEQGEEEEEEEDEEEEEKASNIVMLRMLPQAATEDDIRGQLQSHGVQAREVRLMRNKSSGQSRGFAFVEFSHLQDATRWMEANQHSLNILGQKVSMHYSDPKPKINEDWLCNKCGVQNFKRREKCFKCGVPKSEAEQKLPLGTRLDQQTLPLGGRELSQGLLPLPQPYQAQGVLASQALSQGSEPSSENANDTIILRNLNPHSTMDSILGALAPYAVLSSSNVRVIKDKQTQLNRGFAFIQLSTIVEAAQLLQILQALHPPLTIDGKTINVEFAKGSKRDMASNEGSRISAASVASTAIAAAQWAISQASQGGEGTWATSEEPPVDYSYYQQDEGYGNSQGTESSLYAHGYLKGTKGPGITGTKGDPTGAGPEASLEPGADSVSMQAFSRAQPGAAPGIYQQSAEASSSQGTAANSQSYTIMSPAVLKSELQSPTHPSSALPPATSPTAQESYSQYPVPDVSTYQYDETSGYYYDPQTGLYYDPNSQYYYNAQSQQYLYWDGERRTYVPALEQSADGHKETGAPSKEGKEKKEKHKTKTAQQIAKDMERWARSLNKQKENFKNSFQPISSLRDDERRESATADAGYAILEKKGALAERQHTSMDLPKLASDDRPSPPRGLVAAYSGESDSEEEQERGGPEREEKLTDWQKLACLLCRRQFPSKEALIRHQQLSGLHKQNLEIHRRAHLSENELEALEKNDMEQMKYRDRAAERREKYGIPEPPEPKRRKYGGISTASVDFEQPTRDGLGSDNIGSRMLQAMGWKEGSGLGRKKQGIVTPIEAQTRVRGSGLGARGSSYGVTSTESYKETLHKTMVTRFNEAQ

Columns and labels:
[1] = biological target: T1, SRSF5 (endogenous) (human (endogenous in A549)) (UniProt Q13243); assay: co-IP; endogenous proteins, A549 cells at the indicated glucose concentrations (cells of Fig. 8h not named); immunoprecipitation and immunoblotting
T1 sequence: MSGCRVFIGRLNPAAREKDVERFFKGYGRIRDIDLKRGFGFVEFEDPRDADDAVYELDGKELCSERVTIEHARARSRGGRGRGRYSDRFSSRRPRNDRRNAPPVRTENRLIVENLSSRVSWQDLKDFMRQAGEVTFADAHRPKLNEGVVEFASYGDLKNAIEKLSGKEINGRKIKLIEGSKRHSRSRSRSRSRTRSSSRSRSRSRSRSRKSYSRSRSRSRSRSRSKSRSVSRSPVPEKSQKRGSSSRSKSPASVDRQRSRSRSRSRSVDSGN

[2] = biological target: T2, SRSF5 K125R (transfected, HEK293T) (UniProt Q13243); assay: co-IP; lysates of transfected HEK293T cells, IP-western; Fig. 7f with or without Tip60 knock-down; Fig. 8i at different glucose concentrations
T2 sequence: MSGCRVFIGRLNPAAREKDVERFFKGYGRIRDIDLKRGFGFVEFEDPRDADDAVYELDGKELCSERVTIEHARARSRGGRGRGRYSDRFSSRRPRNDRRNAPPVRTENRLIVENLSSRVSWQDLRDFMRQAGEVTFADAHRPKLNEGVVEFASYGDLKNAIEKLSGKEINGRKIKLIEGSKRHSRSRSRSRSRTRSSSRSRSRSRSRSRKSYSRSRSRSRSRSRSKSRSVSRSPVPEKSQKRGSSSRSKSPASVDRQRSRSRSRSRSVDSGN

[3] = biological target: T3, SRSF5 wild type (transfected, HEK293T, Fig. 7f) (UniProt Q13243); assay: as above
T3 sequence: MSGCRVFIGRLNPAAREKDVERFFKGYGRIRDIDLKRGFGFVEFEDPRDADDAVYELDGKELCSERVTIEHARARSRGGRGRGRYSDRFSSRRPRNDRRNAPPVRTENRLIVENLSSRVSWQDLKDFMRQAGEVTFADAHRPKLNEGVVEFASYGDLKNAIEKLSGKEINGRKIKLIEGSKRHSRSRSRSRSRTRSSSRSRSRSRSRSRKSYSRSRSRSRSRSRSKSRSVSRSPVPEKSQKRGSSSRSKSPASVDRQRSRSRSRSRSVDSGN

[4] = biological target: T4, Flag-CCAR1L (long isoform of cell cycle and apoptosis regulator 1) (human) (UniProt Q8IX12); assay: co-IP; lysates of transfected A549 cells, immunoprecipitation with the indicated antibodies and immunoblotting; for Myc-SRSF5 with Flag-Tip60 the cells were at 2.5 or 25 mM glucose
T4 sequence: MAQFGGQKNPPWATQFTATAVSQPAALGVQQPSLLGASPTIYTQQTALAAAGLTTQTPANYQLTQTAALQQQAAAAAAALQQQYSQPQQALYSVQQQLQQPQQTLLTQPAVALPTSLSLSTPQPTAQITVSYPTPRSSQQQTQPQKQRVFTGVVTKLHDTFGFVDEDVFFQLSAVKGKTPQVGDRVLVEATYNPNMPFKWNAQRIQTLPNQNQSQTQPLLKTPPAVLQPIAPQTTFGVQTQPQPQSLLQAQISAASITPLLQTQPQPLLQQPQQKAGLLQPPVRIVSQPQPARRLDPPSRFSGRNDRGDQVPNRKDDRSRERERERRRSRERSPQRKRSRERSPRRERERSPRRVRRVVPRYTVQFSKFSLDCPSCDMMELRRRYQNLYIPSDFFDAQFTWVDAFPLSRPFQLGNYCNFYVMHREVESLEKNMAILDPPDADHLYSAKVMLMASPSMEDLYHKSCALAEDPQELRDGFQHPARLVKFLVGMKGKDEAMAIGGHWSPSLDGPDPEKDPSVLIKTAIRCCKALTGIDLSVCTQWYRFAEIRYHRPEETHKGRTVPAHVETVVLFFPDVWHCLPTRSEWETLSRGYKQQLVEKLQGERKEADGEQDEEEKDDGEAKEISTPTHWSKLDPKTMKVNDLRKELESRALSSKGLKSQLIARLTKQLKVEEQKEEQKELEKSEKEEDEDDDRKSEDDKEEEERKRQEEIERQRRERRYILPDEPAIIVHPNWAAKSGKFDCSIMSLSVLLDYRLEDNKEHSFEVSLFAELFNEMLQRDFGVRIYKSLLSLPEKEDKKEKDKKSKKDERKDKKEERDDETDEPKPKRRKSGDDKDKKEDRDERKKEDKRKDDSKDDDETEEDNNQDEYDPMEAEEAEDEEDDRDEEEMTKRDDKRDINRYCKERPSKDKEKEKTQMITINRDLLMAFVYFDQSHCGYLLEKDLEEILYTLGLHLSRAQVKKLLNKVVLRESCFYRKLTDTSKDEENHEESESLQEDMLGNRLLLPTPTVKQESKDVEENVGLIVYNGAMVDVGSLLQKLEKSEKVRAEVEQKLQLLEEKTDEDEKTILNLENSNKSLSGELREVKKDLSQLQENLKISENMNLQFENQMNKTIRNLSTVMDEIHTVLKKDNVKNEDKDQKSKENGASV

[5] = biological target: T5, Myc-SRSF5 (in A549) (UniProt Q13243); assay: as above
T5 sequence: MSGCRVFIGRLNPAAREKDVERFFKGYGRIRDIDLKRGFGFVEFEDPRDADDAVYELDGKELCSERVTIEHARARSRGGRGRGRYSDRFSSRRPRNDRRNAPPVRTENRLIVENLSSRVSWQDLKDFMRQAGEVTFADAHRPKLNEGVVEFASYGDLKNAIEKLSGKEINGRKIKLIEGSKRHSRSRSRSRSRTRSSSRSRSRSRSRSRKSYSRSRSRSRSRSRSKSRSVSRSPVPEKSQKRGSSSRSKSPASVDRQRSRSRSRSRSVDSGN

[6] = biological target: HDAC1 (endogenous) (human (endogenous in A549)) (UniProt Q13547); assay: co-IP; endogenous proteins, A549 cells at the indicated glucose concentrations (cells of Fig. 8h not named); immunoprecipitation and immunoblotting
[7] = biological target: HA-HDAC1 (UniProt Q13547); assay: co-IP; lysates of transfected HEK293T cells, IP-western; Fig. 7f with or without Tip60 knock-down; Fig. 8i at different glucose concentrations

In the case of “Tip60 (endogenous) (from UniProt Q92993 1-513) (enzyme)”, the binding [1] is reported as “binds”.

With “Smurf1 (transfected, HEK293T, Fig. 7f) (from UniProt Q9HCE7-2 1-731) (enzyme)” the binding [2] was “binds” and the binding [3] was “binds”.

In the case of hnRNPK (from UniProt P61978 1-463), the binding [4] is reported as “no binding”.

For Cullin 4B (from UniProt Q13620 1-913), the binding [4] was “no binding”.

In the case of “Smurf1 (endogenous) (from UniProt Q9HCE7 1-757) (enzyme)”, the binding [1] is reported as “binds”.

In the case of p53 (from UniProt P04637 1-393), the binding [4] is reported as “binds”.

With “Flag-Tip60 (from UniProt Q92993 1-513) (enzyme)” the binding [5] was “binds”.

In the case of “RBM10 (transfected) (from UniProt P98175 1-930)”, the binding [4] is reported as “binds”.

B1: GSDMA (transfected) (protein, UniProt Q96QA5 1-445)
chain: MTMFENVTRALARQLNPRGDLTPLDSLIDFKRFHPFCLVLRKRKSTLFWGARYVRTDYTLLDVLEPGSSPSDPTDTGNFGFKNMLDTRVEGDVDVPKTVKVKGTAGLSQNSTLEVQTLSVAPKALETVQERKLAADHPFLKEMQDQGENLYVVMEVVETVQEVTLERAGKAEACFSLPFFAPLGLQGSINHKEAVTIPKGCVLAFRVRQLMVKGKDEWDIPHICNDNMQTFPPGEKSGEEKVILIQASDVGDVHEGFRTLKEEVQRETQQVEKLSRVGQSSLLSSLSKLLGKKKELQDLELALEGALDKGHEVTLEALPKDVLLSKEAVGAILYFVGALTELSEAQQKLLVKSMEKKILPVQLKLVESTMEQNFLLDKEGVFPLQPELLSSLGDEELTLTEALVGLSGLEVQRSGPQYMWDPDTLPRLCALYAGLSLLQQLTKAS
With B1 the binding [4] was “binds”.

B2: SRSF5 (endogenous) (protein, UniProt Q13243 1-272)
chain: MSGCRVFIGRLNPAAREKDVERFFKGYGRIRDIDLKRGFGFVEFEDPRDADDAVYELDGKELCSERVTIEHARARSRGGRGRGRYSDRFSSRRPRNDRRNAPPVRTENRLIVENLSSRVSWQDLKDFMRQAGEVTFADAHRPKLNEGVVEFASYGDLKNAIEKLSGKEINGRKIKLIEGSKRHSRSRSRSRSRTRSSSRSRSRSRSRSRKSYSRSRSRSRSRSRSKSRSVSRSPVPEKSQKRGSSSRSKSPASVDRQRSRSRSRSRSVDSGN
In the case of B2, the binding [6] is reported as “binds”.

B3: Flag-SRSF5 (in HEK293T) (protein, UniProt Q13243 1-272)
chain: MSGCRVFIGRLNPAAREKDVERFFKGYGRIRDIDLKRGFGFVEFEDPRDADDAVYELDGKELCSERVTIEHARARSRGGRGRGRYSDRFSSRRPRNDRRNAPPVRTENRLIVENLSSRVSWQDLKDFMRQAGEVTFADAHRPKLNEGVVEFASYGDLKNAIEKLSGKEINGRKIKLIEGSKRHSRSRSRSRSRTRSSSRSRSRSRSRSRKSYSRSRSRSRSRSRSKSRSVSRSPVPEKSQKRGSSSRSKSPASVDRQRSRSRSRSRSVDSGN
For B3, the binding [7] was “binds”.
